Here are results for 31 variants from the GPR68 mutational scans of Howard et al. (2025).

Scores whose standard error is large were omitted. Two further conditions of the source, in which the scores hardly spread, are not listed. Names with del lack the residues named; names with ins carry added residues between the positions named. For some assays here: The data file names ogerin without a concentration.

To fix the notation:
B1: GPR68, Q15743 (parent)
chain: MGNITADNSSMSCTIDHTIHQTLAPVVYVTVLVVGFPANCLSLYFGYLQIKARNELGVYLCNLTVADLFYICSLPFWLQYVLQHDNWSHGDLSCQVCGILLYENIYISVGFLCCISVDRYLAVAHPFRFHQFRTLKAAVGVSVVIWAKELLTSIYFLMHEEVIEDENQHRVCFEHYPIQAWQRAINYYRFLVGFLFPICLLLASYQGILRAVRRSHGTQKSRKDQIQRLVLSTVVIFLACFLPYHVLLLVRSVWEASCDFAKGVFNAYHFSLLLTSFNCVADPVLYCFVSETTHRDLARLRGACLAFLTCSRTGRAREAYPLGAPEASGKSGAQGEEPELLTKLHPAFQTPNSPGSGGFPTGRLA

Data set [1] covers variants of B1. In words: cAMP reporter score (Enrich2 score, wild type = 0); higher = more signal; HEK293T, FACS bins.
Data set [2] covers variants of B1. In words: surface expression score (Enrich2 score, wild type = 0); higher = more signal; HEK293T, FACS bins.

Regarding V29P, the cAMP reporter score in data set [1] (pH 5.5) was -1.82; in data set [1] (pH 6) it was -0.995; in data set [1] (pH 6, modulator: ogerin) it was -1.68; in data set [1] (pH 6.5, modulator: ogerin), -0.902. Also, in data set [2], the surface expression score was -2.67.

Consider V29H, for which the cAMP reporter score was -1.14 in data set [1] (pH 5.5); -0.427 in data set [1] (pH 6); -1.01 in data set [1] (pH 6, modulator: ogerin); -1.06 in data set [1] (pH 6.5, modulator: ogerin). The surface expression score in data set [2] was -2.41.

L23_A24del: the cAMP reporter score in data set [1] (pH 5.5) is -0.556; in data set [1] (pH 6) it was -0.943; in data set [1] (pH 6, modulator: ogerin) it was -1.84; in data set [1] (pH 6.5, modulator: ogerin) it was -0.853. The surface expression score in data set [2] was -2.45.

Consider H17_I19del, for which the cAMP reporter score in data set [1] (pH 5.5) is -1.88; in data set [1] (pH 6) it was -0.625; in data set [1] (pH 6, modulator: ogerin) it was -1.72; in data set [1] (pH 6.5, modulator: ogerin), -0.842. The surface expression score in data set [2] was -1.91.

As for V31_L32del, the cAMP reporter score in data set [1] (pH 5.5) is -1.41; in data set [1] (pH 6), -1.03; in data set [1] (pH 6, modulator: ogerin) it was -2.13; in data set [1] (pH 6.5, modulator: ogerin), -1.2. For the same variant, in data set [2], the surface expression score was -2.43.

As to P25_V26insGSG, the cAMP reporter score in data set [1] (pH 5.5) is -1.78; in data set [1] (pH 6) it was -0.927; in data set [1] (pH 6, modulator: ogerin) it was -1.43; in data set [1] (pH 6.5, modulator: ogerin), -0.812. The surface expression score in data set [2] is -2.86.

As for V26_V27insG, the cAMP reporter score in data set [1] (pH 5.5) is -0.071; in data set [1] (pH 6, modulator: ogerin), -1.47; in data set [1] (pH 6.5, modulator: ogerin), -0.308. Also, in data set [2], the surface expression score was -2.85.

In the case of V33F, the cAMP reporter score in data set [1] (pH 5.5) is 2.72; in data set [1] (pH 6) it was -0.052. Also, the surface expression score in data set [2] was determined as 0.9.

As to V33G, the cAMP reporter score in data set [1] (pH 5.5) is -1.08; in data set [1] (pH 6), -1.12; in data set [1] (pH 6, modulator: ogerin), -0.394; in data set [1] (pH 6.5, modulator: ogerin), -1.25. In addition, in data set [2], the surface expression score was -1.6.

Turning to V33A, the cAMP reporter score in data set [1] (pH 5.5) was -1.12; in data set [1] (pH 6), 0.04; in data set [1] (pH 6, modulator: ogerin), -1.01; in data set [1] (pH 6.5, modulator: ogerin), -0.497. For the same variant, the surface expression score in data set [2] was -2.05.

Turning to V33N, the cAMP reporter score in data set [1] (pH 5.5) was -0.994; in data set [1] (pH 6), -0.919; in data set [1] (pH 6, modulator: ogerin), -1.42; in data set [1] (pH 6.5, modulator: ogerin), -1.51. The surface expression score in data set [2] is -2.38.

V33D: the cAMP reporter score in data set [1] (pH 5.5) is -2.32; in data set [1] (pH 6), -1.24; in data set [1] (pH 6, modulator: ogerin), -1.64; in data set [1] (pH 6.5, modulator: ogerin) it was -1.84. Moreover, the surface expression score in data set [2] is -3.06.

For V33S, the cAMP reporter score in data set [1] (pH 5.5) is -0.89; in data set [1] (pH 6) it was -0.302; in data set [1] (pH 6, modulator: ogerin), 0.101; in data set [1] (pH 6.5, modulator: ogerin), -1.14. Moreover, the surface expression score in data set [2] is -1.9.

With V33W, the cAMP reporter score in data set [1] (pH 5.5) was -1.12; in data set [1] (pH 6, modulator: ogerin), -1.19; in data set [1] (pH 6.5, modulator: ogerin) it was -0.917. In addition, in data set [2], the surface expression score was -1.84.

For V33K, the cAMP reporter score in data set [1] (pH 5.5) was -1.52; in data set [1] (pH 6), -1.75; in data set [1] (pH 6, modulator: ogerin), -2; in data set [1] (pH 6.5, modulator: ogerin), -1.4. The surface expression score in data set [2] was -2.5.

On to V33Y, for which the cAMP reporter score in data set [1] (pH 5.5) was -3.1; in data set [1] (pH 6, modulator: ogerin) it was -1.68; in data set [1] (pH 6.5, modulator: ogerin), -1.71. Further, the surface expression score in data set [2] is -2.5.

V33C: the cAMP reporter score was -0.059 in data set [1] (pH 5.5); -0.974 in data set [1] (pH 6); 0.058 in data set [1] (pH 6, modulator: ogerin); -0.342 in data set [1] (pH 6.5, modulator: ogerin). The surface expression score in data set [2] was -0.214.

For V33P, the cAMP reporter score in data set [1] (pH 5.5) was -1.29; in data set [1] (pH 6), 0.087; in data set [1] (pH 6, modulator: ogerin) it was -0.917; in data set [1] (pH 6.5, modulator: ogerin) it was -0.419. Further, the surface expression score in data set [2] is -2.62.

As for V33E, the cAMP reporter score is -1.78 in data set [1] (pH 5.5); -0.975 in data set [1] (pH 6); -2.14 in data set [1] (pH 6, modulator: ogerin); -1.52 in data set [1] (pH 6.5, modulator: ogerin).

Consider V33M, for which the cAMP reporter score in data set [1] (pH 5.5) was 0.616; in data set [1] (pH 6), 0.139; in data set [1] (pH 6, modulator: ogerin), 0.517; in data set [1] (pH 6.5, modulator: ogerin), 0.552. The surface expression score in data set [2] was -0.985.

Take V33L: the cAMP reporter score in data set [1] (pH 5.5) was 0.168; in data set [1] (pH 6), 0.243; in data set [1] (pH 6, modulator: ogerin), -0.52; in data set [1] (pH 6.5, modulator: ogerin), 0.968. Also, in data set [2], the surface expression score was found to be 0.3.

As for V33H, the cAMP reporter score in data set [1] (pH 5.5) was -1.53; in data set [1] (pH 6), -1.51; in data set [1] (pH 6, modulator: ogerin) it was -1.56; in data set [1] (pH 6.5, modulator: ogerin) it was -0.724. Besides, in data set [2], the surface expression score is -1.79.

On to V33T, for which the cAMP reporter score in data set [1] (pH 5.5) was 0.28; in data set [1] (pH 6), -0.947; in data set [1] (pH 6, modulator: ogerin), -0.205; in data set [1] (pH 6.5, modulator: ogerin), 0.226. In data set [2], the surface expression score was -1.72.

In the case of V33R, the cAMP reporter score in data set [1] (pH 5.5) is -1.73; in data set [1] (pH 6) it was -1.92; in data set [1] (pH 6, modulator: ogerin), -1.48; in data set [1] (pH 6.5, modulator: ogerin), -0.765. The surface expression score in data set [2] is -3.01.

In the case of V33I, the cAMP reporter score in data set [1] (pH 5.5) was -0.239; in data set [1] (pH 6), 0.291; in data set [1] (pH 6, modulator: ogerin), 0.146; in data set [1] (pH 6.5, modulator: ogerin), 0.173. The surface expression score in data set [2] is -0.053.

For the variant V27_V29del, the cAMP reporter score is -1.46 in data set [1] (pH 5.5); -1.35 in data set [1] (pH 6); -1.41 in data set [1] (pH 6, modulator: ogerin); -1.8 in data set [1] (pH 6.5, modulator: ogerin). Further, in data set [2], the surface expression score was -3.06.

Consider D16Y, for which the cAMP reporter score in data set [1] (pH 5.5) was -0.882; in data set [1] (pH 6), -0.849; in data set [1] (pH 6, modulator: ogerin), -1.02; in data set [1] (pH 6.5, modulator: ogerin) it was -1.17. Besides, the surface expression score in data set [2] is 0.076.

For D16V, the cAMP reporter score is 0.203 in data set [1] (pH 5.5); -0.435 in data set [1] (pH 6); 0.083 in data set [1] (pH 6, modulator: ogerin); -0.363 in data set [1] (pH 6.5, modulator: ogerin). Besides, the surface expression score in data set [2] came to 0.111.

As for D16T, the cAMP reporter score in data set [1] (pH 5.5) was 1.18; in data set [1] (pH 6), -0.306; in data set [1] (pH 6, modulator: ogerin), 1.45; in data set [1] (pH 6.5, modulator: ogerin) it was 1.19. In data set [2], the surface expression score stood at 1.43.

For D16S, the cAMP reporter score in data set [1] (pH 5.5) is 0.387; in data set [1] (pH 6), -0.372; in data set [1] (pH 6, modulator: ogerin), 0.098; in data set [1] (pH 6.5, modulator: ogerin) it was -0.744. Further, the surface expression score in data set [2] amounted to 0.739.

In the case of D16W, the cAMP reporter score in data set [1] (pH 5.5) is -1.39; in data set [1] (pH 6), -0.817; in data set [1] (pH 6, modulator: ogerin), -1.23; in data set [1] (pH 6.5, modulator: ogerin), -0.679. In data set [2], the surface expression score is -1.27.
